In the supplement of paper PMC4604168 (melanoma cell lines):
The list shows a part of the results. Most values come without repeats; read them as rough.

Experiments:
Assay in all cases: cell count relative to DMSO control; melanoma cells; higher = more viable cells
Conditions in all cases: library dose: standard library concentration; 72 h
[1] = test system: G361
[2] = test system: IPC-298
[3] = test system: IST-MEL1
[4] = test system: LB2518-MEL
[5] = test system: LOXIMVI
[6] = test system: MEL-HO
[7] = test system: MZ2-MEL
[8] = test system: MeWo
[9] = test system: RPMI7951
[10] = test system: RVH-421
[11] = test system: SkMel28
[12] = test system: SkMel2
[13] = test system: SkMel30
[14] = test system: SkMel5
[15] = test system: UACC257
[16] = test system: UACC62
[17] = test system: WM115
[18] = test system: WM1716
[19] = test system: WM1745
[20] = test system: WM3526
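Further: cells treated in 1,536-well plates, then fixed and DAPI-stained, with nuclei counted from automated high-throughput microscope images.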

Row | SMILES | cell count [1] [%] | cell count [2] [%] | cell count [3] [%] | cell count [4] [%] | cell count [5] [%] | cell count [6] [%] | cell count [7] [%] | cell count [8] [%] | cell count [9] [%] | cell count [10] [%] | cell count [11] [%] | cell count [12] [%] | cell count [13] [%] | cell count [14] [%] | cell count [15] [%] | cell count [16] [%] | cell count [17] [%] | cell count [18] [%] | cell count [19] [%] | cell count [20] [%]
1 | CC(=O)c1c(C)c2cnc(Nc3ccc(N4CCNCC4)cn3)nc2n(C2CCCC2)c1=O [palbociclib] + COc1ccc(Cl)c(Nc2nc3ccccc3nc2NS(=O)(=O)c2cccc(NC(=O)C(C)(C)N)c2)c1 [XL147] (first compound 0.2 µM, partner dose 4 µM) | 73.6 | 67.9 | 51.4 | 70.2 | 118 | 69.7 | 71.7 | 69.7 | 82.1 | 72.2 | 44 | 73.4 | 73.4 | 58 | 78.2 | 63 | 48.6 | 45.7 | 77.1 | 45.1
2 | Nc1ccn([C@@H]2O[C@H](CO)[C@@H](O)C2(F)F)c(=O)n1 [gemcitabine] + CN(C)S(=O)(=O)c1ccc2c(c1)/C(=C/c1cc3c([nH]1)CCCC3)C(=O)N2 [SU6656] (first compound 0.002 µM, partner dose 2 µM) | 48 | 55.2 | 41.4 | 62 | 85.4 | 62.4 | 61 | 46.7 | 49.1 | 50.8 | 83.4 | 71.4 | 83.7 | 74.5 | 80.7 | 58.9 | 40.8 | 61.4 | 40.8 | 78
3 | CC(=O)O[C@@]12CO[C@@H]1C[C@H](O)[C@@]1(C)C(=O)[C@H](O)C3=C(C)[C@@H](OC(=O)[C@H](O)[C@@H](NC(=O)OC(C)(C)C)c4ccccc4)C[C@@](O)([C@@H](OC(=O)c4ccccc4)[C@H]21)C3(C)C [Docetaxel] + Cn1c(Nc2ccc(C(F)(F)F)cc2)nc2cc(Oc3ccnc(-c4ncc(C(F)(F)F)[nH]4)c3)ccc21 [CHIR265] (first compound 0.0005 µM, partner dose 0.4 µM) | 3.63 | 25 | 44.4 | 17.6 | 89.4 | 31.3 | 19.8 | 19.1 | 20.4 | 30.9 | 13.5 | 10.9 | 38.1 | 29.5 | 61.5 | 32.1 | 14.1 | 37.6 | 24.6 | 26.7
4 | CC(=O)O[C@@]12CO[C@@H]1C[C@H](O)[C@@]1(C)C(=O)[C@H](O)C3=C(C)[C@@H](OC(=O)[C@H](O)[C@@H](NC(=O)OC(C)(C)C)c4ccccc4)C[C@@](O)([C@@H](OC(=O)c4ccccc4)[C@H]21)C3(C)C [Docetaxel] + Nc1ccn([C@@H]2O[C@H](CO)[C@@H](O)C2(F)F)c(=O)n1 [gemcitabine] (first compound 0.0005 µM, partner dose 0.002 µM) | 16.4 | 34.1 | 29.7 | 61.6 | 90.8 | 55.7 | 43.8 | 28.2 | 28.1 | 28.2 | 17.8 | 20.1 | 57.8 | 34.3 | 57.8 | 49.3 | 35.6 | 40.2 | 41.1 | 49.1
5 | Nc1ccn([C@@H]2O[C@H](CO)[C@@H](O)C2(F)F)c(=O)n1 [gemcitabine] + O=C(Nc1cccc(Cl)c1)Nc1ncc(CCNc2ncnc3ccsc23)s1 [SNS314] (first compound 0.002 µM, partner dose 0.004 µM) | 34.5 | 56.4 | 40.1 | 55 | 68 | 56.6 | 77.8 | 38.5 | 65.5 | 63.4 | 56.8 | 78.5 | 81.6 | 83.7 | 67.4 | 68.5 | 49.6 | 55.4 | 54.8 | 69.4
6 | CC(=O)c1c(C)c2cnc(Nc3ccc(N4CCNCC4)cn3)nc2n(C2CCCC2)c1=O [palbociclib] + Cc1ccc(NC(=O)c2cccc(N(C)C)c2)cc1NC(=O)c1ccc(O)cc1 [ZM336372] (first compound 0.2 µM, partner dose 10 µM) | 64.2 | 80.9 | 62.1 | 68.8 | 87.4 | 88.3 | 74.8 | 55.9 | 66.3 | 59.5 | 29.7 | 62.8 | 75.6 | 47.9 | 74.5 | 60.4 | 54 | 42.1 | 130 | 47.6
7 | Nc1nc(F)nc2c1ncn2[C@@H]1O[C@H](CO)[C@@H](O)[C@@H]1O [fludarabine] + C#Cc1cccc(Nc2ncnc3cc(OCCOC)c(OCCOC)cc23)c1 [erlotinib] (first compound 1 µM, partner dose 4 µM) | 85.3 | 49.5 | 74.6 | 84.4 | 80.4 | 64.1 | 77.8 | 82 | 58.2 | 75.1 | 1.59 | 1.07 | 17.4 | 36.5 | 29.7 | 41.3 | 61.7 | 86.7 | 65.7 | 34.6
8 | CC(=O)c1c(C)c2cnc(Nc3ccc(N4CCNCC4)cn3)nc2n(C2CCCC2)c1=O [palbociclib] + Nc1cccc2c1CN(C1CCC(=O)NC1=O)C2=O [lenalidomide] (first compound 0.2 µM, partner dose 5 µM) | 74.9 | 69.9 | 74.5 | 53.3 | 81.7 | 65.4 | 62.6 | 63.8 | 64.3 | 50.7 | 62.2 | 65.4 | 57.3 | 64.2 | 78.4 | 71.8 | 65.2 | 48.7 | 62.5 | 49.8
